According to PMC4655192 (Neuropharmacology, 2015):

What was measured:
[1] = test system: KOR-KO striatal membranes
[2] = test system: MOR-KO striatal membranes

Work on NC(N)=Nc1ccc2[nH]c3c(c2c1)C[C@@]1(O)[C@H]2Cc4ccc(O)c5c4[C@@]1(CCN2CC1CC1)[C@H]3O5 [5′-GNTI, 5′-guanidinonaltrindole] yielded an IC50 (WT striatal membranes; vs 1 μM DynA(1-17)) of 0.0173 ± 0.0021 µM, an IC50 (WT striatal membranes; vs 1 μM DynB(1-9)) of 0.0114 ± 0.002 µM and an IC50 ([1]; vs 1 μM DynA(1-17)) of 0.0117 ± 0.0045 µM. For the same compound, the IC50 ([1]; vs 1 μM DynB(1-9)) was 0.0109 ± 0.0015 µM, the IC50 ([2]; vs 1 μM DynA(1-17)) was 0.0115 ± 0.0008 µM and the IC50 ([2]; vs 1 μM DynB(1-9)) was 0.0047 ± 0.0007 µM.

With Oc1ccc2c3c1O[C@H]1c4[nH]c5c(c4C[C@@]4(O)[C@@H](C2)N(CC2CC2)CC[C@]314)C[C@@]1(O)[C@H]2Cc3ccc(O)c4c3[C@@]1(CCN2CC1CC1)[C@H]5O4 [NorBNI, Norbinaltorphimine] the IC50 (WT striatal membranes; vs 1 μM DynA(1-17)) was 0.046 ± 0.0052 µM, the IC50 (WT striatal membranes; vs 1 μM DynB(1-9)) was 0.0281 ± 0.0029 µM and the IC50 ([1]; vs 1 μM DynA(1-17)) was 0.0667 ± 0.0204 µM. It also gave an IC50 ([1]; vs 1 μM DynB(1-9)) of 0.0431 ± 0.0101 µM, an IC50 ([2]; vs 1 μM DynA(1-17)) of 0.019 ± 0.003 µM and an IC50 ([2]; vs 1 μM DynB(1-9)) of 0.0091 ± 0.0023 µM.

With Oc1ccc2c3c1O[C@H]1c4[nH]c5ccccc5c4C[C@@]4(O)[C@@H](C2)N(CC2CC2)CC[C@]314 [naltrindole] the IC50 (WT striatal membranes; vs 1 μM DynA(1-17)) was 0.02 ± 0.007 µM and the IC50 (WT striatal membranes; vs 1 μM DynB(1-9)) was 0.016 ± 0.009 µM.

Read-outs that look alike come from different tables or passages of the source.
